Measured values from PubChem BioAssay AID360 (National Center for Advancing Translational Sciences (NCATS), 2006).
Out of some 48,000 compounds screened, about 550 (1.1%) were called active. Inconclusive results (about 4%) are left out. Cut-off read from the data, not from the text of the source: active = potency below about 15 µM; inconclusive = mostly about 16 µM to 33 µM; inactive = weaker than that. The list shows a part of the results.

molecular target: Lysosomal acid glucosylceramidase (Homo sapiens) (UniProt P04062); assay: Glucocerebrosidase; conditions: purified enzyme, resorufin glucoside fluorescence (screen aimed at inhibitors), 20 min;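 note: the screen sought inhibitors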
Chain of UniProt P04062 (P04062 whole entry, looked up): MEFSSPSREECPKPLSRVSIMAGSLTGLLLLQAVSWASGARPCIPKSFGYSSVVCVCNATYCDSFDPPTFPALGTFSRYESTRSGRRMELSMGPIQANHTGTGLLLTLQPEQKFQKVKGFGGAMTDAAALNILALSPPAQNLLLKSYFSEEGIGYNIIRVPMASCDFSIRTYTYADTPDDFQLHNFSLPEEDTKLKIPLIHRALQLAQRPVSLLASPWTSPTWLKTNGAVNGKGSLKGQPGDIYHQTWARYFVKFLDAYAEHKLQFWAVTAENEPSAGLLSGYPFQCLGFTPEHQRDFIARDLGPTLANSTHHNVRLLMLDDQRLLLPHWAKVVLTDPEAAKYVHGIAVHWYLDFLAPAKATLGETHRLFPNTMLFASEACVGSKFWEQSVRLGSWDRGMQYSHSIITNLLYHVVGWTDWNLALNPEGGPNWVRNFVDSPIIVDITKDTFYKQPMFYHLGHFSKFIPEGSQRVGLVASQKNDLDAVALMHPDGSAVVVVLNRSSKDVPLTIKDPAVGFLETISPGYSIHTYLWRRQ
In short: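 Wild-type enzyme at 0.2 nM final in 50mM citric acid/KH2PO4, 10mM sodium taurocholate, 0.01% tween-20, pH 5.9, with resorufin beta-D-glucopyranoside at 30 uM final. Compounds titrated, 20 min at RT, red fluorescence read; AC50 from titration.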
Potency is the fitted concentration of half-maximal effect.

Potency, active:
Cc1nc2ccccc2c2c1C(=O)N(CCC1=CCCCC1)C2=O 14.3 µM

Potency, inactive:
CCOC(=O)CSc1cc(=O)n(C)c2cc(Cl)ccc12 > 76.9 µM
NC(=O)C1CCN(C(c2ccccc2F)c2nnnn2Cc2ccco2)CC1 (stereo not drawn) > 76.9 µM
CC(C)CN1CN(S(=O)(=O)c2cccs2)c2nc3ccccc3nc21 > 76.9 µM
CCn1c(SCC(=O)N2CCc3ccccc32)nnc1-c1ccncc1 > 76.9 µM
Cc1cc(NCCN2CCCCC2)n2c(nc3ccccc32)c1C#N > 76.9 µM
COc1ccc(CNC(=O)C(c2ccco2)N(Cc2cccs2)C(=O)Cc2cccs2)cc1 (stereo not drawn) > 76.9 µM
CC12CCC(=O)N1C(C(=O)Nc1cccc3ccccc13)CS2 (stereo not drawn) > 76.9 µM
COc1ccc(CN2CCN(S(=O)(=O)c3ccc(F)cc3)CC2)cc1OC > 76.9 µM
CCCC(CCC)C(=O)Nc1ccncc1 > 76.9 µM
Cc1cc(C)c2nc3c(c(C(=O)O)c2c1)CCC3 > 76.9 µM
CN(C)c1ccc(C(CC(=O)O)NC(=O)c2ccc(Cl)cc2)cc1 (stereo not drawn) > 76.9 µM
CCOC(=O)c1cccc(NS(=O)(=O)c2cnc[nH]2)c1 > 76.9 µM
CCCCC1CCC(C(=O)Nc2c(C)n(C)n(-c3ccccc3)c2=O)CC1 (stereo not drawn) > 76.9 µM
CCCn1c(=O)c2ccccc2n2c(SCC(=O)c3ccc(F)cc3)nnc12 > 76.9 µM
Cc1nc(NCc2ccco2)nc2c1C(=O)CC(C)C2 (stereo not drawn) > 76.9 µM
CCOC(=O)CNC(=O)CSc1ncnc2c1cnn2-c1ccccc1 > 76.9 µM
CN1CCN(C(=O)c2ccc(N(Cc3ccc(Cl)cc3)S(C)(=O)=O)cc2)CC1 > 76.9 µM
CCOC(=O)CSC1=C(C#N)C(c2sccc2C)CC(=O)N1 (stereo not drawn) > 76.9 µM
c1ccc(-c2csc(N3CCCCCC3)n2)cc1 > 76.9 µM
C=C(C)Cn1c(SCC#N)nc2ccccc2c1=O > 76.9 µM
CCCc1nnc(NC(=O)Cn2c(=O)oc3ccccc32)s1 > 76.9 µM
Cc1ccc(S(=O)(=O)N2CCN(C(=O)CSc3nc4ccccc4o3)C2)cc1 > 76.9 µM
CSc1ccccc1-n1nnnc1SCC(=O)NCc1cccs1 > 76.9 µM
O=C(NC1CCCCC1)N1CCC(n2cnc3ccccc32)CC1 > 76.9 µM
CCn1c(=O)n(CC)c2cc(S(=O)(=O)N3CCC(c4ccccc4)CC3)ccc21 > 76.9 µM
c1cncc(-c2nnc(SCCSc3nnc(-c4cccnc4)o3)o2)c1 > 76.9 µM
CN(C)C=NCCn1c(N2CCOCC2)nc2c1c(=O)n(C)c(=O)n2C > 76.9 µM
COc1ccc(CCNC(=O)CSc2nc(N)c(C#N)c(-c3cccs3)c2C#N)cc1OC > 76.9 µM
CCN(CC(=O)Nc1ccc2c(c1)OCCO2)Cc1cc(=O)oc2c(C)c(C)ccc12 > 76.9 µM
CCN(CCO)C(=O)C12CCC(C)(C(=O)C1)C2(C)C (stereo not drawn) > 76.9 µM
COc1cccc(OC)c1C(=O)N1CCN(Cc2ccncc2)CC1 > 76.9 µM
CCOc1cc2[nH]c(=O)n(CC3CCC(C(=O)NC4CCCCC4)CC3)c(=O)c2cc1OCC (stereo not drawn) > 76.9 µM
CC(=O)CSc1ncnc2c1oc1ccccc12 > 76.9 µM
O=C(Nc1nnc(CCc2ccccc2)s1)C1CCCO1 (stereo not drawn) > 76.9 µM
O=c1c2ccccc2sn1-c1ccc(S(=O)(=O)N2CCCCC2)cc1 > 76.9 µM
Cc1ccccc1CS(=O)(=O)Cc1ccc(C(=O)NCc2ccco2)o1 > 76.9 µM
CC(NC(=O)c1ccc2c(c1)OCO2)C(c1cccs1)N1CCOCC1 (stereo not drawn) > 76.9 µM
O=C(O)COc1ccccc1Cc1ccccc1 > 76.9 µM
Cc1cc(Br)c2c(c1)=C(c1sc(N3CCCCCC3)nc1O)C(=O)N=2 > 76.9 µM
CC1CCN(CCn2c(=S)[nH]c3ncccc3c2=O)CC1 > 76.9 µM
CCOCCCNC(=O)C1CCC(CNS(=O)(=O)c2cccc3nsnc23)CC1 (stereo not drawn) > 76.9 µM
Cc1ccc(NCc2nnc(SCC(=O)c3ccccc3)n2Cc2ccco2)c(C)c1 > 76.9 µM
O=c1[nH]c2c(s1)C(c1ccco1)C1C3CCC(C3)C1S2 (stereo not drawn) > 76.9 µM
CCOCCCNC(=O)c1ccc(CS(=O)(=O)Cc2cccc(C)c2)o1 > 76.9 µM
O=C(Nc1cccnc1)c1cc(-c2ccc3c(c2)OCO3)on1 > 76.9 µM
O=C(NC1CC1)C1CCCN1S(=O)(=O)c1ccc2ccccc2c1 (stereo not drawn) > 76.9 µM
Cc1ccc(S(=O)(=O)CCc2nnc(NC(=O)c3ccccn3)s2)cc1 > 76.9 µM
Clc1ccc(Nc2nc(-c3cccs3)cs2)nc1 > 76.9 µM
COc1ccc(-c2cc(=O)n(-c3nc4ccccc4[nH]3)[nH]2)cc1 > 76.9 µM
CCOC(=O)N1CCN(S(=O)(=O)c2ccc(OCC)c3ccccc23)CC1 > 76.9 µM
CCOC(=O)C1=C(C)Nc2ccccc2N=C1NC(=O)CCCN1C(=O)c2ccccc2C1=O > 76.9 µM
C/C(Cl)=C\Cn1c(Nc2cccc(C)c2)nc2c1c(=O)n(C)c(=O)n2C > 76.9 µM
O=C1CC2(CON=C2c2ccc(F)cc2)C(=O)N1c1ccc(F)cc1 (stereo not drawn) > 76.9 µM
COc1cccc2[nH]c3c(N4CCCCC4)ncnc3c12 > 76.9 µM
CCC1(CC)Cc2ccccc2C(N)=C1C#N > 76.9 µM
O=C1Nc2cccnc2Sc2ccccc21 > 76.9 µM
Nc1nc(-c2cccnc2)nn1C(=O)CCc1ccccc1 > 76.9 µM
CSc1nnnn1-c1cccc(O)c1 > 76.9 µM
CCOC(=O)Nc1nnc(-c2ccccc2OC)s1 > 76.9 µM
[O-][N+]12CCN(CC1)c1ccccc12 > 76.9 µM
C=CCn1c(=O)c2ccccc2n2c(SCC(=O)c3ccccc3)nnc12 > 76.9 µM
CCCCN(C(=O)c1ccco1)c1nnc(-c2cc(OC)c(OC)c(OC)c2)s1 > 76.9 µM
O=C(O)CCCc1nc(-c2ccccc2)no1 > 76.9 µM
CCS(=O)(=O)N1CCC(C(=O)N2CCOCC2)CC1 > 76.9 µM
Cn1c(CCNC(=O)c2ccccc2)nc2ccccc21 > 76.9 µM
CC(=O)c1cc2c(cc1NC(=O)CN1CCN(c3cccc(C(F)(F)F)c3)CC1)OCO2 > 76.9 µM
Cc1nc2[nH]c(=O)c3c(n2n1)NC1=C(C(=O)CC(C)(C)C1)C3c1ccc(F)cc1 (stereo not drawn) > 76.9 µM
O=C(OCC#CCSc1nnc(-c2ccccc2)o1)c1ccco1 > 76.9 µM
O=C(Nc1ccc2c(c1)ncn2-c1ccccc1)c1ccco1 > 76.9 µM
COCCCn1c(SCc2cc(=O)[nH]c3ccccc23)nnc1-c1ccco1 > 76.9 µM
CNC(=O)c1cc2cc(OC)ccc2oc1=N > 76.9 µM
COc1ccc(S(=O)(=O)N2CCN(C(=O)c3cccs3)CC2)cc1OC > 76.9 µM
CC(=O)c1ccc(NC(=O)CSc2nnc(NC(=O)CN3CCOCC3)s2)cc1 > 76.9 µM
CSc1nccc(Nc2ccccc2)c1C#N > 76.9 µM
COc1ccc(-c2cc3nc(-c4ccccc4)cc(N4CCC5(CC4)OCCO5)n3n2)cc1 > 76.9 µM
Cc1ccc2[nH]c3c(c2c1)CCC3=O > 76.9 µM
CCOc1ccc(OC(=O)c2cccnc2)cc1 > 76.9 µM
CS(=O)CCC(NS(=O)(=O)c1ccccc1)C(=O)O (stereo not drawn) > 76.9 µM
CCCCCn1c(SCc2ccncc2)nc2cc(C(=O)NCc3ccco3)ccc2c1=O > 76.9 µM
CC(C)c1nc2cc3ccccc3cc2[nH]1 > 76.9 µM
CC(=O)NC(Cc1c[nH]c2ccccc12)C(=O)Nc1ccc2c(c1)OCO2 (stereo not drawn) > 76.9 µM
CCOC(=O)c1c(N)n[nH]c1-c1ccc(OC)cc1 > 76.9 µM
O=C(CNS(=O)(=O)c1ccc(Br)s1)N1CCC(N2CCCCC2)CC1 > 76.9 µM
CCC(C)(NC(=O)c1ccccn1)C(=O)NC1CCCCC1 (stereo not drawn) > 76.9 µM
O=C(Cc1cccs1)Nc1nc2ccccc2s1 > 76.9 µM
COc1ccc(CCN(C)C(=O)N2CCOCC2)cc1OC > 76.9 µM
COc1ccc(OC)c(NC(=O)C2=C(C)Nc3ncnn3C2c2cccs2)c1 (stereo not drawn) > 76.9 µM
c1ccc(CCc2nc(-c3ccccn3)no2)cc1 > 76.9 µM
CC(=O)N(C(C)=O)c1ccc2nc(C)[nH]c(=O)c2c1 > 76.9 µM
COc1ccccc1N1CCN(C(c2ccc(C)cc2)c2nnnn2C(C)C)CC1 (stereo not drawn) > 76.9 µM
CCOc1cc(C(=O)Nc2cnccn2)cc(OCC)c1OCC > 76.9 µM
C=CCNC(=O)CCCCCNS(=O)(=O)c1ccc(OC)cc1 > 76.9 µM
